The target in one data set is T1, Cytochrome P450 1A2 (Homo sapiens, UniProt P05177).
T1 sequence (P05177 whole entry): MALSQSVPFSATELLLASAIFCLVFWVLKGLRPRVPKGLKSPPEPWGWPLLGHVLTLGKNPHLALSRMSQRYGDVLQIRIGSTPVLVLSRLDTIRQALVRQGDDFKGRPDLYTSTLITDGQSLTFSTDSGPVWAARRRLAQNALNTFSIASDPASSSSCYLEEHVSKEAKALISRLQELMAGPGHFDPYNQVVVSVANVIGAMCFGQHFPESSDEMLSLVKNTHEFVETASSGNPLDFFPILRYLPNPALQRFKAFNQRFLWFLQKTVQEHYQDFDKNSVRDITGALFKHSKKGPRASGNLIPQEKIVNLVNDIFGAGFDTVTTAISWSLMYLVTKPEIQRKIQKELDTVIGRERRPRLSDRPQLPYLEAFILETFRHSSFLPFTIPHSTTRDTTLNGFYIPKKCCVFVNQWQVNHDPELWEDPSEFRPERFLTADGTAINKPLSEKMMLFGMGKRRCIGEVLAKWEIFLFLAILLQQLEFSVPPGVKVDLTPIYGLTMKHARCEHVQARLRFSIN
Particulars: bti-tn-5b1-4.

The next data set has as its target Cytochrome P450 3A4 (Homo sapiens, UniProt P08684). Particulars: bti-tn-5b1-4.
A further data set addresses Cytochrome P450 2D6 (Homo sapiens, UniProt P10635). Particulars: bti-tn-5b1-4.
Another data set deals with T2, Cytochrome P450 2A6 (Homo sapiens, UniProt P11509).
T2 sequence (P11509 whole entry): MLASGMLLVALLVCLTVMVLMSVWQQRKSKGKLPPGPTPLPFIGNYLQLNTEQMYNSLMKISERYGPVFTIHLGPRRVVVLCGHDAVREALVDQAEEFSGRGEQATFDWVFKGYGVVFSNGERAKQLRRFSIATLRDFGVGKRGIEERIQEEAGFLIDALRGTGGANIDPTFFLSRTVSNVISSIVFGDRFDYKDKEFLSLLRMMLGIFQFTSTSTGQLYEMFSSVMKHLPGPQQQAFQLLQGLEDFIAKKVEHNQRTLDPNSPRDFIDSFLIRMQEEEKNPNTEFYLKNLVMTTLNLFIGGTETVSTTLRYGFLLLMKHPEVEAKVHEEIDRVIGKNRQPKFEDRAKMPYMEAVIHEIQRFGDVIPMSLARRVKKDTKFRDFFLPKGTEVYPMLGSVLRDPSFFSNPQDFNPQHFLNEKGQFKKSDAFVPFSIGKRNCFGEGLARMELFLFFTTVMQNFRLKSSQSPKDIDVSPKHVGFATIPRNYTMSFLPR
Particulars: bti-tn-5b1-4.

The target of data set [1] is Voltage-gated inwardly rectifying potassium channel KCNH2 (Homo sapiens, UniProt Q12809). Particulars: hek293.
Sequence of Voltage-gated inwardly rectifying potassium channel KCNH2 (Q12809 whole entry): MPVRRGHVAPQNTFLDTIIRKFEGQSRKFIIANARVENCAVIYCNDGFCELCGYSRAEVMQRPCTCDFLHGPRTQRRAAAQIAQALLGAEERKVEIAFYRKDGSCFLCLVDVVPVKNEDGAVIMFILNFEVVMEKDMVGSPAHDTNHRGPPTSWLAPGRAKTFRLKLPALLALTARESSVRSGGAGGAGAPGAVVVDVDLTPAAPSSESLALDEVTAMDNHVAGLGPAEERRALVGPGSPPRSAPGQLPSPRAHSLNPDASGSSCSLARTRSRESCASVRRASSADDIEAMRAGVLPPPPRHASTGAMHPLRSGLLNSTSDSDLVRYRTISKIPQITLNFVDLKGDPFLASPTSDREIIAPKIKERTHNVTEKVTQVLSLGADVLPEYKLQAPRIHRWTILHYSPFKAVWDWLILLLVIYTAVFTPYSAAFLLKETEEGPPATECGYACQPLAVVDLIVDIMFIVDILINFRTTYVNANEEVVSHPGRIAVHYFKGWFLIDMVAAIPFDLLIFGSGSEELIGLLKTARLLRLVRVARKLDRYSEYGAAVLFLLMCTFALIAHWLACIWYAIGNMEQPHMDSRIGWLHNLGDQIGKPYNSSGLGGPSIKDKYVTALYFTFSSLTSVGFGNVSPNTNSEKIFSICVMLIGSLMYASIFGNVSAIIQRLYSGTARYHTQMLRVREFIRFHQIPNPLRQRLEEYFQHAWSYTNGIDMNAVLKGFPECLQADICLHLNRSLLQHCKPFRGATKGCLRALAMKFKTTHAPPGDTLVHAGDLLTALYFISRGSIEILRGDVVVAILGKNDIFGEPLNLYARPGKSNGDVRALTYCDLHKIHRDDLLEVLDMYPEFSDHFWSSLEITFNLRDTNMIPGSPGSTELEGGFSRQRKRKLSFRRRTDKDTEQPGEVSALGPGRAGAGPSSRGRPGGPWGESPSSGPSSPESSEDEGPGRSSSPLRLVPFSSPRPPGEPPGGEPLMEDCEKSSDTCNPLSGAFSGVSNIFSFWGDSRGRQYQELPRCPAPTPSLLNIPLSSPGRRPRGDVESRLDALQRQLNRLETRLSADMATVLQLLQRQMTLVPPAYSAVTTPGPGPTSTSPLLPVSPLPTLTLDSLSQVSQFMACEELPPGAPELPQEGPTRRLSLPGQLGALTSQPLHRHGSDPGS
A further data set deals with Cytochrome P450 2E1 (Homo sapiens, UniProt P05181). Particulars: bti-tn-5b1-4.
Sequence of Cytochrome P450 2E1 (P05181 whole entry): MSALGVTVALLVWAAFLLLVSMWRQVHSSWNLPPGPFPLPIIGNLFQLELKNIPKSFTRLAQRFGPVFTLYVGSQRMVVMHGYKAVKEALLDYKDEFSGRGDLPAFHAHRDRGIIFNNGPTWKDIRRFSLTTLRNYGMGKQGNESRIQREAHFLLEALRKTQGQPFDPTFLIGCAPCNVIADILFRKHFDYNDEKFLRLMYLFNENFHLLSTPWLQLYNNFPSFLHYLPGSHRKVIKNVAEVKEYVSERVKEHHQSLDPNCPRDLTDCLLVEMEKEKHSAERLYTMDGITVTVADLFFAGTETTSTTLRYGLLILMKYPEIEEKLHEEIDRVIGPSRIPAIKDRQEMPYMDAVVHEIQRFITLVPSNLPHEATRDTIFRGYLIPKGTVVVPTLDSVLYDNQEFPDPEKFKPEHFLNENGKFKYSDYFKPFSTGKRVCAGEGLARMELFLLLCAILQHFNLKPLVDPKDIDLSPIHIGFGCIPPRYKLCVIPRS
Another data set deals with Cytochrome P450 2C9 (Homo sapiens, UniProt P11712). Particulars: bti-tn-5b1-4.
Sequence of Cytochrome P450 2C9 (P11712 whole entry): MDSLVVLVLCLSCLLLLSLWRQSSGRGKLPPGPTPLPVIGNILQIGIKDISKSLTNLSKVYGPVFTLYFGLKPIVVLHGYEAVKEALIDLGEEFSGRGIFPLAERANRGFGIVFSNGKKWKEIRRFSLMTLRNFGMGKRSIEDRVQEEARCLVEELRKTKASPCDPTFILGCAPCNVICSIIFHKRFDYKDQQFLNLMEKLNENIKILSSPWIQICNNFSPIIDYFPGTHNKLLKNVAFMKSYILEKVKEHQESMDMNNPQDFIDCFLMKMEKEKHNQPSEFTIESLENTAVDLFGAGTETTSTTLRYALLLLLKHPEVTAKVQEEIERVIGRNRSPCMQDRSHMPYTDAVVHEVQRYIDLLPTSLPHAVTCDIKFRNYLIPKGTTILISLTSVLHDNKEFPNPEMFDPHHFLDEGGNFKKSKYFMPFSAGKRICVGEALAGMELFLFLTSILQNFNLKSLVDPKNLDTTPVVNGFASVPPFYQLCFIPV
A further data set concerns the target Cytochrome P450 2C19 (Homo sapiens, UniProt P33261). Particulars: bti-tn-5b1-4.
Further: in other assays of this panel Not Active means under 50% inhibition at 10 µM.

Sequence of Cytochrome P450 3A4 (P08684 whole entry): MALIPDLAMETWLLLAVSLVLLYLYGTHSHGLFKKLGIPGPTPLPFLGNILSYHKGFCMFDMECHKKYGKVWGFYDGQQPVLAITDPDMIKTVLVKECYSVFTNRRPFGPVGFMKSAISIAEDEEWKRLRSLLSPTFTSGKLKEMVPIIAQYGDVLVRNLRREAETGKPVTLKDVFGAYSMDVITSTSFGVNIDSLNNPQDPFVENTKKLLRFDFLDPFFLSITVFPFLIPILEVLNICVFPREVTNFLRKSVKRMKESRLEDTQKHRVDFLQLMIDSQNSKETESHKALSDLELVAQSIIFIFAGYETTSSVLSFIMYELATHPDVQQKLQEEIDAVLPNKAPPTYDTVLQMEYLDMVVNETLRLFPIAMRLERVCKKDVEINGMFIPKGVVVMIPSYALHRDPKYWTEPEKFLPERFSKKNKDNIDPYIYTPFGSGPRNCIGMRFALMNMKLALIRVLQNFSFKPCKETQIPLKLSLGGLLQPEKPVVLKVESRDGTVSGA
Sequence of Cytochrome P450 2D6 (P10635 whole entry): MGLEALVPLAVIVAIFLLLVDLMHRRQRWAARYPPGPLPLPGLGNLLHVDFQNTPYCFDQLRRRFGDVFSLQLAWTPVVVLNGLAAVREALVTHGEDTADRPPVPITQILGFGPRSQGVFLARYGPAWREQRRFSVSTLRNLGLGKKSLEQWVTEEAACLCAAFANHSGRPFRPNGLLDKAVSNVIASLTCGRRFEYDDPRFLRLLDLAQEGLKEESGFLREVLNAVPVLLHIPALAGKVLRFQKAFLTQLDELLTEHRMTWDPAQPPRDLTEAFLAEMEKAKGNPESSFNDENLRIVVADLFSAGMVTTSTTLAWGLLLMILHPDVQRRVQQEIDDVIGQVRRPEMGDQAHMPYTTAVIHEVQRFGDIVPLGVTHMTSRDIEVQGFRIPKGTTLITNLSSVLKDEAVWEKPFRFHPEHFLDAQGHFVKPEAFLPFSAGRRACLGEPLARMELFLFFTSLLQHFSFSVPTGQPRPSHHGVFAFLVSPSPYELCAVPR
Sequence of Cytochrome P450 2C19 (P33261 whole entry): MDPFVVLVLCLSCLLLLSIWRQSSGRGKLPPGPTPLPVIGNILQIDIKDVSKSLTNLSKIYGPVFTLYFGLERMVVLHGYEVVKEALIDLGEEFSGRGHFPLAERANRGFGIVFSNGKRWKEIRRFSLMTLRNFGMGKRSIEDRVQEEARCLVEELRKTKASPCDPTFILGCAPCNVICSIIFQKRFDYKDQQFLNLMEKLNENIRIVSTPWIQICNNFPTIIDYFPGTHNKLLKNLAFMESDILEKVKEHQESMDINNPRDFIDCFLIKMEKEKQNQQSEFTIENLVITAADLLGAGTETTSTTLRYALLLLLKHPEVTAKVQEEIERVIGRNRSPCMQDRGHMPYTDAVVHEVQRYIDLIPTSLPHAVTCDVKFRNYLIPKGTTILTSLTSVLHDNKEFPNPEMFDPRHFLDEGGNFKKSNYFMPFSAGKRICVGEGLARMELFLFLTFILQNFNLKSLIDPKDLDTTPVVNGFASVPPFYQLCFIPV

Consider `O=C1OCCN1/N=C/c1ccc([N+](=O)[O-])o1` [FURAZOLIDONE], for which the IC50 result (at Cytochrome P450 1A2; on Cytochrome P450 3A4; on Cytochrome P450 2D6; against Cytochrome P450 2A6; in data set [1]; against Cytochrome P450 2E1) was “Not Active” in each case. On Cytochrome P450 2C9, the IC50 entry is given as “Not Active”. Further, the Ki entry (on Cytochrome P450 1A2; at Cytochrome P450 3A4; on Cytochrome P450 2D6; at Cytochrome P450 2A6; in data set [1]; at Cytochrome P450 2E1) was “Not Active” throughout. The Ki entry on Cytochrome P450 2C9 is given as “Not Active”.
`COC(=O)C1=C(C)NC(C)=C(C(=O)OC)C1c1ccccc1[N+](=O)[O-]` [NIFEDIPINE]: the IC50 result (against Cytochrome P450 2C19; on Cytochrome P450 3A4; against Cytochrome P450 2D6; against Cytochrome P450 2A6; in data set [1]; at Cytochrome P450 2E1) was “Not Active” each time. Moreover, the IC50 result against Cytochrome P450 2C9 is reported as “Not Active”. The Ki result was “Not Active” at Cytochrome P450 2C19; “Note: corresponding IC50 reported as Active” on Cytochrome P450 1A2; “Not Active” on Cytochrome P450 3A4; “Not Active” on Cytochrome P450 2D6; “Not Active” on Cytochrome P450 2A6; “Not Active” in data set [1]. The Ki result at Cytochrome P450 2E1 and on Cytochrome P450 2C9 was “Not Active” each time.

Values taken from ChEMBL document CHEMBL1909046, “DrugMatrix in vitro pharmacology data”.
